# The supplement of paper PMC11417369
# ± gives the standard deviation of the averaged measurements. This is one part of the list.
# Test system: PfAP2-G AP2 domain (GST-tagged)
# Assay: gcPBM binding intensity (ln(normalized median fluorescence intensity)); higher = stronger DNA binding
# How it was run: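 Using an Agilent 4 × 180k array, primer-extended double-stranded 36-bp intergenic genomic probes and negative controls were exposed for 1 h to GST-fused P. falciparum DNA-binding domains expressed in E. coli. Binding was carried out in 1× PBS with 1% milk, 0.2 mg/ml BSA, 0.5% salmon testes DNA and 0.03% Triton X-100, and protein was detected with Alexa488 anti-GST antibody and a 488 nm scan. Binding intensity is the highest Masliner-normalised natural-log median intensity across replicate spots of either probe orientation.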
row,Sequence,gcPBM binding intensity (ln)
1,TATATAAATGTTATCACACACTCACGTTTGACAAAA [CACACA_site6468],10.1 ± 0.078
2,TTCCTCTTAATATGTGCACACTAAATTATAACCTAA [CACACA_site5751],10.6 ± 0.43
3,GAAGGAAATAATAGTAGTACAAATGGTAAGAAATAT [XGTACX_site5845],11.4 ± 0.88
4,ATACAATAAAATAAGTTTGAATAAAATTAAATATAT [CACACA_negctrl_site877],9.6 ± 0.16
5,TCCTTTTTTAAAAGTTGTACATTATTGTTATTTGTT [XGTACX_site4686],11.4 ± 0.84
6,ATTTATTTCTATAATACACACAAATATCTTAATTAA [CACACA_site7801],9.95 ± 0.2
7,ATGTCATAAATGTACGCACACATACATAAACATATA [CACACA_site4530],11.6 ± 1
8,TTCATTTTAATTTCCAGTACACATATATATACATAT [XGTACX_site558],11.2 ± 0.79
9,ATTATATTTATGTTGGTGCATTATACATGAAATTTA,10.2 ± 0.31
10,AATATAATACAATATTGTACATAATATAAATTAAAA [XGTACX_site4064],10.9 ± 0.62
11,ATATATTAACAAAAGGTGCTTTTGGCAAAGTATAAT,10.2 ± 0.2
12,ATAAAAATGGTGTTAACACACACATATATATATATA [CACACA_site8089],10.3 ± 0.53
13,TTATTTAAATATTGATGTACTCTCCTTATTATAATA [XGTACX_site1240],11.2 ± 0.78
14,TATATGTTATATTGGACACACACAATAAACATTATG [CACACA_site8480],10.7 ± 0.64
15,AAACATAAAGAAAAAAAAAATATATATTTATTTATT [GTGCAC_negctrl_site357],9.56 ± 0.23
16,GGTAATTATTTTGGTTGTACTCAAATATATAATATT [XGTACX_site291],11.4 ± 0.9
17,TAATATATGTATTGCACACCTATAACCATTATTTCT [CACACA_site1498],10.04 ± 0.021
18,AAAAGCAAGTTCCAGGGTACATATATATGAAAAAAC [XGTACX_site2408],11.1 ± 0.68
19,TACAATTTTTTAAATGCACACAAAAGGAATAAATAA [CACACA_site8075],10.3 ± 0.25
20,ACGTTAAAATATTGGGTGCTAACACAATAAAAATAA,10.2 ± 0.18
21,AAAAATATGTCCATGAAAAGGATAGGCAGGTAATCA [XGTACX_negctrl_site93],10.4 ± 0.24
22,AAATATATTTTACATTGTACATGAATAAACTATAAA [XGTACX_site2080],10.9 ± 0.45
23,AAAAATTAAATAAATTTACACACTAATAATTACATA [CACACA_site8260],9.71 ± 0.12

row,Sequence,gcPBM binding intensity (ln)
1,AAGTTTTATTTAAATTGTACTAAAATTTTTATATTA [XGTACX_site7065],11 ± 0.69
2,TATATATAAATATTCAGTACATAGTATTATTAAGTA [XGTACX_site1980],10.8 ± 0.64
3,ATAAAATGAACAAACACACACACATATATATATATA [CACACA_site2402],10.1 ± 0.32
4,TCTTGTTTTCAAATATGTACATAGAATAGACATTTT [XGTACX_site684],11.3 ± 0.72
5,AAATATATAAAATATACACACAGTAATATATATATA [CACACA_site1385],9.655 ± 0.007
6,TTTTTCTTTCTCTATTGTACACATGGAAACACATAA [XGTACX_site4601],11.4 ± 0.92
7,TATTTAAGAATATGAAGTACATATATTATTTAAAAA [XGTACX_site7897],11.3 ± 1
8,CATATAAATAAATACACACACACACGCCTTATAATT [CACACA_site7830],10.2 ± 0.14
9,TATATAGGTATCATTACACACATGTATACTTATTTG [CACACA_site7864],10.4 ± 0.16
10,CCTAAAAAAAAGAAATGATATACATATGTATATATA [GTGCAC_negctrl_site100],9.685 ± 0.064
11,ATATATTGAACATATTGTACATTTTGTTAATATTTT [XGTACX_site7622],10.7 ± 0.43
12,TACAAAAAAAAAAAATAGATAAAATAATAATCAAAT [TGCATGCA_negctrl_site524],9.46 ± 0.23
13,TCTCAAGTTGTTAAAAAATAAAAACAATAAATCTAA [CACACA_negctrl_site165],9.62 ± 0.014
14,CAATTTTTTAAATGCACACAAAAGGAATAAATAAAT [CACACA_site544],10.4 ± 0.2
15,AAGAAGAAATGCTTTGCATGCAAATTTTATGCCAAC [TGCATGCA_site721],9.68 ± 0.26
16,AACAATTGGAATAACGCATGCATTTATAATATAGAA [TGCATGCA_site298],9.71 ± 0.35
17,TAAAATAATTTATGCATACACACATATATATATATA [CACACA_site4021],10 ± 0.3
18,TGAATATTCCTATGCACACAAATTAAAATACATAAT [CACACA_site4403],10.2 ± 0.27
19,ACAAATTTATACTTAAAACACACGTAATCATTTATA [CACACA_site1636],9.985 ± 0.035
20,ATAGCTTTTATTTAAAGTACAAAAAGGATGTTGAAA [XGTACX_site3810],11 ± 0.61
21,ATATATATTTATATTTGTACGAATTAAAATTTTTTA [XGTACX_site5200],11 ± 0.66
22,ATTTAAAACAAAAGTAGTACGTCTAATAAATTCAAC [XGTACX_site4344],11.6 ± 1.1
23,TTATCAATAAAATGCACACACTGTAATATTATTAAA [CACACA_site6055],9.99 ± 0.16

row,Sequence,gcPBM binding intensity (ln)
1,AGACAAAATGTTTGAAGTACTTTTTATCAAATTAAA [XGTACX_site8885],11.2 ± 0.69
2,AAAAAAAAAAAACACACACACACACCCATACATACA [CACACA_site707],10.4 ± 0.36
3,TGATTTTTTCATATTCTACACACGTGAACAAATGTG [CACACA_site8987],10.6 ± 0.26
4,TTAATTATTATATAAGTGCAATAATAAAAAGTTGTA [GTGCAC_site9552],10.1 ± 0.3
5,TTGTTAATAAATAAATAAATAAATATATTTATATAT [GTGCAC_negctrl_site271],9.78 ± 0.45
6,AATATATATATATGTACACACTCCAATACATATACA [CACACA_site2682],11.3 ± 0.83
7,AATTTATTTTTTTAATGTACATATGGTATAAATATA [XGTACX_site8012],11.3 ± 0.79
8,TGTTGATTTCTCAAATGTACTTTACTTTTCTTCAGA [XGTACX_site7916],11 ± 0.64
9,TTTTTTTTTTTTAATTGTACATTTTATATAAACTTT [XGTACX_site6806],10.8 ± 0.75
10,TCTTTTTAAATTACTATAATACATTCATAAATTATA [GTGCAC_negctrl_site448],9.89 ± 0.071
11,TTAAGAATATCTTAGAGTACATTTTATCATCTTAAA [XGTACX_site8298],11 ± 0.68
12,AGGGAATAAGTAAGGTGTACATAATTATGTTACTTT [XGTACX_site6152],11.5 ± 0.74
13,TTTTTTTATTTTATAAAGCAAAAATAAGAATGAAAT [XGTACX_negctrl_site270],10 ± 0.25
14,TATATGTATGTATGTACACACAAAAAATGGAATATA [CACACA_site3717],11.6 ± 1
15,TTTTGATTAAGTGAATTTTTTTATTTATATAAATAT [TGCATGCA_negctrl_site479],9.7 ± 0.17
16,AATATAAATACTCCTACACACATATAAATATAAATA [CACACA_site7419],10.3 ± 0.35
17,TCCACATTAATGTAATGTACAAAATTAGAAAATAAA [XGTACX_site6287],10.7 ± 0.42
18,AATTAGCTCAAAGGTTGTACAAATATATTTTAATGG [XGTACX_site2352],11.2 ± 0.64
19,TTTTAAACACCAATCAAAAAAATATAAATATAAATA [TGCATGCA_negctrl_site552],9.74 ± 0.071
20,CATACATACATATATACACACATATATAATAATATA [CACACA_site2678],10.1 ± 0.2
21,TACGAATTAAAAAAGAGTACAAATAAAATATCTACA [XGTACX_site7412],11.3 ± 0.84
22,AAAAAAAATAATTTGCGTACATAAAAATTTATAGGA [XGTACX_site3016],11.6 ± 0.94
23,AAATTTTTTTTTGTCATATGATGTTTGAACCCAAAT [CACACA_negctrl_site1659],10.3 ± 0.42

row,Sequence,gcPBM binding intensity (ln)
1,TCCGTATATTTATACGCATGCATTATGAACATTGTT [TGCATGCA_site613],10.07 ± 0.071
2,TTACATTGTAAAAAGTGTACATATAATTTAATTAAT [XGTACX_site1834],11.4 ± 0.98
3,ATGTAGACTGAAACCACACACACATATATATATATA [CACACA_site606],10.3 ± 0.23
4,GGATTACAAATAGGTTGTACGTTTTTTTTTTTTTCT [XGTACX_site3605],11.4 ± 0.81
5,AATTTTTTAAATGTGTGTACATATTATTTAAATAAT [XGTACX_site5967],11.5 ± 0.73
6,TTTTTTACAATTAACACACTCAAAAATAATATTAAA [CACACA_site5198],10.1 ± 0.14
7,AATCACAACGAACACACACACAAAAAAAAAAAAAAA [CACACA_site6790],10.1 ± 0.57
8,TATATTATATATATATGTACATATGGCAAAACATTA [XGTACX_site7958],11.2 ± 0.83
9,AAAAAAAAAAAAAAATGTACCCATAAAATAAGCATT [XGTACX_site8576],11.4 ± 0.94
10,ATATATATATCTAATTGTACATATTTTATAAATAAG [XGTACX_site4840],11 ± 0.52
11,ATAAATATATTTATATGTACATATAATTTTACATAT [XGTACX_site5440],11.4 ± 0.67
12,TATAATCTAACATAATGTACATGTATATGCACTTTA [XGTACX_site369],10.8 ± 0.45
13,AAAAATTAAATGTACACACACCTTAAACAATGTCAT [CACACA_site6958],11.4 ± 0.98
14,AAATACTGATTTGGTTGTACATGTGCACTATATAAC [XGTACX_site3795],11.3 ± 0.79
15,TTTTGGATGTATTATACATGCATATTATTATAATAT [TGCATGCA_site997],9.945 ± 0.092
16,AAAAAAAAAAAAAAAAAAAAAAAAATCACACATTGG [TGCATGCA_negctrl_site412],10.9 ± 0.42
17,AGAAAAGAAATTAAATGTACACAACTATAACCAAAT [XGTACX_site8084],11.3 ± 0.73
18,TGTACAACAATTTTTGCACACACCAAAACATAAAAT [CACACA_site1598],11.1 ± 0.2
19,ATATATCTACAAATATGTACACACACACATATATAT [XGTACX_site1075],11.3 ± 0.67
20,TTTTATAAAATATAATATAATAATATATGTATAATA [CACACA_negctrl_site1788],9.76 ± 0.13
